From PubChem BioAssay AID1508624 (National Center for Advancing Translational Sciences (NCATS), 2021)
In all, about 48,000 compounds went through this assay and about 120 (0.25%) were called active. Roughly 4% stayed inconclusive and do not appear here. The call rests on the fitted dose curve; in most records, active means well fitted activation curve with a large enough effect; inconclusive means small, poorly fitted or top-dose-only effect, or another doubt; inactive means no such curve, though single readings can be large or run the other way. The list shows a part of the results.

Assay: Primary qHTS for Identification of Small Molecule Activators of Huntingtin-Antisense Promoter Activity; further: nearly all actives have a fitted effect of over 55% in size
Conditions: HEK293 HTT-AS promoter firefly luciferase reporter, 24 h; series mostly up to 57.5 µM; activity change, positive = activation: at the top concentration
Procedure, shortened: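 Firefly luciferase readout (Dual-Glo, 10 min RT) after 24 h, 37 °C compound exposure (final up to 57.5 uM) of HEK293 reporter cells cultured 24 h beforehand; PTC124 at 50 uM final as control inhibitor; activity scaled vehicle 0%, zero RLU -100%.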

Activity change, positive = activation, inactive:
COc1ccccc1OCCn1cc(C(=O)c2cccs2)c2ccccc21 -39.7%
COc1ccc(Cl)cc1NC(=O)Cn1ccn(Cc2ccc(C)cc2)c(=O)c1=O -38.2%
O=C(c1cc2c(=O)oc3ccccc3c2s1)N1CCN(c2cccc(Cl)c2)CC1 -13.4%
COc1cc(/C=C/C(N)=O)cc(OC)c1OC 3.91%
CCOC(=O)N1CCN(C(=O)CN(c2cccc(Cl)c2C)S(=O)(=O)c2ccc(C)cc2)CC1 -38.8%
O=C(Nc1ccccc1)c1cccc2c(=O)c3c([nH]c12)CCCC3 -14.1%
Cc1cccc(-n2c(SCC(N)=O)nc3c(oc4ccccc43)c2=O)c1 -12.7%
Cc1ccc(CCNC(=O)CN(c2ccc(C)cc2)S(=O)(=O)c2c(C)noc2C)cc1 -23.1%
COc1ccccc1CNc1ccc(-c2nc(C(C)C)no2)cc1[N+](=O)[O-] 3.66%
Cc1ccc(C)c(NC(=O)Cn2cc(C(=O)c3ccncc3)c(=O)c3cc(F)ccc32)c1 1.15%
CCOc1ccc(CNC(=O)c2cc3oc4ccccc4c3n2C)cc1 -25.6%
COc1ccc(NC(=O)Cn2cnc3sc(C)c(S(=O)(=O)N4CCN(C)CC4)c3c2=O)cc1OC -9.28%
Cc1cc(C)c2c(CC(=O)N(Cc3ccc(N(C)C)cc3)Cc3ccco3)coc2c1 -32.2%
O=C(CSc1nc2c(c(=O)[nH]1)CCC2)Nc1ccccc1F -1.31%
CN(C)c1ccc(CNc2nc(-c3ccco3)nn2S(=O)(=O)c2ccc3ccccc3c2)cc1 1.15%
Cc1ccccc1-c1nc(CNC(=O)Nc2ccccc2)c(C)o1 -4.67%
Cc1ccccc1OCc1ccc(-c2nc(C#N)c(NCCCN(C)C)o2)o1 -10.1%
CCOC(=O)C1CCN(C(c2ccccc2OC)c2c(O)cc(C)n(CCOC)c2=O)CC1 (stereo not given) 1.96%
COc1cccc(-c2nc(-c3ccc(-c4ccccc4)nc3OC)no2)c1 19.3%
O=C(Nc1ccc(F)cc1)[C@H](Cc1ccccc1)N1Cc2ccccc2C1=O -13.2%
CN(C(=O)C(Cl)Cl)c1ccc(OC(=O)c2ccco2)cc1 -13.5%
Cn1nnnc1SCCCNCc1cccc(OCc2ccc(Cl)cc2)c1 -21.3%
Cc1c(Cl)cccc1-n1ncc(C(=O)Nc2ccc3c(c2)OCCO3)c1C1CCN(C(=O)OC(C)(C)C)CC1 -62.9%
CCOc1ccc(-c2nc(SC(C(C)=O)C(=O)N(C)C)c3c(=O)n(C)c(=O)n(C)c3n2)cc1 (stereo not given) -1.84%
COc1ccc(-c2nn(C)c3sc(C(=O)Nc4cccc(F)c4)cc23)cc1OC -25.8%
CO[C@H]1/C=C\O[C@@]2(C)Oc3c(C)c(O)c4c(O)c(c(C=NN5CCN(C6CCCC6)CC5)c(O)c4c3C2=O)NC(=O)C(C)=CC=C[C@H](C)[C@H](O)[C@@H](C)[C@@H](O)[C@@H](C)[C@H](OC(C)=O)[C@H]1C -45.7%
Cc1ccccc1OCC(=O)OCc1cc(=O)n2ccsc2n1 -5.07%
Cc1ccc2cc3cc(C(=O)Nc4ccc(F)cc4Cl)oc3nc2c1 -15.8%
CCN(CC)S(=O)(=O)c1ccc2c(c1)N(CC(=O)N1CCN(c3cccc(C(F)(F)F)c3)CC1)C(=O)CO2 -30.4%
COCCn1c(SCC(=O)c2cc(C)ccc2C)nc2cc(C(=O)NC3CCCC3)ccc2c1=O -11.6%
Cc1cc(C)cc(NC(=O)c2cc(S(=O)(=O)N3CCCCCC3)cn2C)c1 -12.8%
Nc1ccn([C@H]2CC[C@@H](CO)O2)c(=O)n1
CCN(CC)CCN(C(=O)c1ccco1)c1nc2ccc(Cl)cc2s1 6.85%
Cc1ccc(-n2nc3c(N4CCC(C(=O)NC(C)C)CC4)nnc(C)c3c2C)cc1 -11.4%
CCC1CN(C(=O)N2CCC(C(=O)NCc3ccc(OC)cc3OC)CC2)c2cc(C)ccc2O1 (stereo not given) -31%
CCCN(CCC)C(=O)C1CCCN(S(=O)(=O)c2ccc3c(c2)oc(=O)n3C)C1 (stereo not given) -19.2%
O=C(c1ccccc1)c1ccccc1NC(=O)c1ccccc1C(=O)O -5.49%
Cc1ccc(-c2nc(CS(=O)CC(=O)N3CCN(c4ccccc4)CC3)c(C)o2)cc1 (stereo not given) -14.6%
COc1ccc(-c2noc(-c3ccc(NC4CCCC4)c([N+](=O)[O-])c3)n2)cc1 -8.09%
CCN(CC)c1cc(C)c2cc(NC(=O)/C=C/c3ccc(C)cc3)ccc2n1 -37.2%
CC(=O)c1ccc(N2CCN(C(=O)c3cc4cc5cc(C)ccc5nc4s3)CC2)cc1 4.4%
Cc1ccc(C)c(NC(=O)C2CCCN(S(=O)(=O)c3ccc4[nH]c(=O)ccc4c3)C2)c1 (stereo not given) -17.5%
Cc1ccc(C(=O)c2oc3ccccc3c2NC(=O)c2cc(-c3ccccc3)on2)cc1F -15.1%
COc1ccc(Cl)cc1NC(=O)c1cc2c(s1)-c1ccccc1OC2 4.51%
CCc1ccc(OC(C)C(=O)Nc2c(C(=O)c3ccccc3)oc3ccccc23)cc1 (stereo not given) -1.98%
COCCNC(=O)CCc1nc2cccnc2n1Cc1ccc(OC)cc1 -7.76%
Oc1c(Br)cc(Br)cc1-c1nc2ccccc2s1 -16.4%
CS(=O)(=O)N(CC(=O)NCCSc1ccccc1)c1cc(C(F)(F)F)ccc1Cl -18.3%
COc1ccc(OC)c(NC(=O)CSc2cn(CC(=O)N3CCOCC3)c3ccccc23)c1 -8.19%
COc1cccc(C2C(C(=O)Nc3ccccc3)=C(C)Nc3nc(-c4ccccc4)nn32)c1 (stereo not given) -21.5%
COc1ccc(C2C(C(N)=O)=C(C)Nc3nc(-c4ccccc4Cl)nn32)cc1 (stereo not given) -2.76%
Cc1ccc2oc(C(=O)N(Cc3ccccc3F)C3CCS(=O)(=O)C3)c(C)c2c1 (stereo not given) -36.8%
COc1cccc(NC(=O)CC2C(=O)OCCN2Cc2ccccc2)c1 (stereo not given) -23.8%
Cn1c(=O)[nH]c(=O)c2c1nc1n(CCO)c(-c3ccccc3)cn21 0.642%
O=C(CSc1nc2c(cnn2-c2ccc(F)cc2)c(=O)[nH]1)Nc1ccc(Br)cc1 -23.7%
CCCCOc1ccc(-c2cc3c(=O)n(CC(=O)Nc4ccc(Cl)cc4Cl)ccn3n2)cc1 -10.1%
Cc1ccc(-c2nn(CC(=O)NC3CCCCC3)c3c2cnc2ccc(F)cc23)cc1C -10.3%
CCOc1cccc2cc(-c3nnc(Nc4ccc(F)c(Cl)c4)s3)c(=O)oc12 -10.3%
CC(=O)c1ccc2c(c1)N(CCCN(C)C)c1ccccc1S2 -17.3%
COc1cccc(CNC(=O)c2cc(=O)[nH]c3ccc(S(=O)(=O)N4CCCCC4)cc23)c1 -10.7%
CC(C)C(=O)OC1=CN(Cc2ccccc2)S(=O)(=O)c2ccccc21 -6.29%
COc1ccccc1CNC(=O)c1ccc2c(c1)sc1nc(-c3ccc(F)cc3)cn12 -3.19%
Cc1cccc(C)c1Nc1c(-c2ccc(Cl)s2)nc2ncccn12 -32.2%
Cc1ccc(Cl)cc1NC(=O)CN(C)S(=O)(=O)c1ccc2c(c1)n(C)c(=O)c(=O)n2C 0.288%
O=C(Nc1ccc(SC(F)F)cc1)c1cc(-c2ccc3c(c2)OCCO3)on1 -63.8%
Cc1noc(Cn2c(=O)c3cc4c(cc3n(CC(=O)Nc3cccc(Cl)c3)c2=O)OCO4)n1 -11.3%
CCOc1ccc(CNC(=O)c2c(C)nn(-c3ccc(F)cc3)c2-n2cccc2)cc1 -25.3%
CC(=O)Nc1nonc1-c1nnc(SCC(=O)Nc2ccc(C)cc2C)n1C -11.7%
COc1ccc(NC(=O)[C@@H](c2ccccc2)N2Cc3ccccc3C2=O)cc1OC -2.6%
CN(C)CCOC(C)(c1ccccc1)c1ccccn1 (stereo not given) 0.911%
CC1CCc2c(sc(NC(=O)COc3ccccc3)c2C(=O)Nc2ccccc2Cl)C1 (stereo not given) 16.9% [at 11.5 µM, percent change from vehicle, -100% = no light]
C=CCNC(N)=S 1.74%
Cc1ccc(CSCC(=O)N2CCN(c3cc(Cl)ccc3C)CC2)cc1 -11.1%
Cc1ccc(-n2nc(C(=O)NCCN(C)C)c(=O)n(C)c2=O)cc1 -3.73%
COC(=O)CNC(=O)C(Cc1ccccc1)NS(=O)(=O)c1ccc2c(c1)c(=O)n(C)c(=O)n2C (stereo not given) -4.95%
Cc1c(Cl)cccc1NC(=O)c1cnc2sc(N3CCCC3)nn2c1=O -1.99%
Cc1ccc(NC(=O)Cn2c(=O)n(CCCCCC(=O)NCc3ccc(F)cc3)c(=O)c3sccc32)c(C)c1 -11.6%
CCN(C(=O)C1CCN(S(=O)(=O)c2ccc3c(c2)CCCN3C(=O)C2CCC2)CC1)c1cccc(C)c1 -1.38%
COCCN1Cc2cccc(C(=O)Nc3ccc(C)cc3C)c2C1=O -8.26%
Cc1cc2c(cc1S(=O)(=O)N1CCC(C)CC1)OCC(=O)N2 -23.4%
Cc1c(C(=O)NCc2ccc(N(C)C)cc2)oc2c1-c1nn(Cc3cccc(Cl)c3)cc1CC2 -26.7%
O=C(COc1ccccc1)Nc1ccc(S(=O)(=O)N(Cc2ccccc2)c2ccccc2)cc1 2.57%
CCCC12CN3CC(CCC)(CN(C1)C3c1c[nH]c3ccccc13)C2=O (stereo not given) 0.531%
Cc1ccc(-c2nnc(SCC(=O)N3CCc4ccccc43)o2)cc1 -6.4%
COc1ccc(-c2nc(-c3ccccc3)c(-c3ccccc3)[nH]2)cc1Br -24.3%
Oc1c(I)cc(Cl)c2cccnc12 -4.58%
Cc1cc(C)cc(NC(=O)Cn2c(=O)oc3cc(S(=O)(=O)N4CCCC4)ccc32)c1 -33.2%
O=S(=O)(c1ccc2ccccc2c1)n1nc(-c2ccco2)nc1NCc1cccc(Cl)c1 -8.28%
Cc1ccc(CNC(=O)c2ccc3c(c2)N(Cc2ccccc2F)C(=O)c2ccccc2S3(=O)=O)cc1 -16.1%
COc1ccc(S(=O)(=O)c2cn(C)c3cc(N4CCCC4)c(F)cc3c2=O)cc1 -14.9%
COc1cccc(CNC(=O)c2cnc(N3CCCC3)nc2C)c1 -2.8%
COc1ccc(CCNC(=O)c2cc(-c3ccccc3)nc3ccccc23)cc1OC -25.5%
CCn1cc(C(=O)OCC(=O)Nc2cc(C)cc(C)c2)c(=O)c2ccc(C)nc21 -0.276%
COC(=O)c1scc(-c2ccc(C)cc2)c1S(=O)(=O)Nc1cccc(C(F)(F)F)c1 24.2%
COC(=O)c1sc2cccc(F)c2c1S(=O)(=O)Nc1cc(OC)cc(OC)c1 -9.24%
